58 compounds from paper PMC4336329 (PLoS ONE, 2015) can be followed below.

The whole screen tested about 310,000 compounds, of which about 2,200 (0.71%) showed an effect of 50% or more. Effects have a minus sign here. The list shows a part of the results.

This assay deals with human ether-à-go-go-related gene (hERG) potassium channel (human, UniProt Q12809). The assay is described as follows: primary screen, population patch clamp on CHO cells stably expressing hERG.
Chain of human ether-à-go-go-related gene (hERG) potassium channel (Q12809 whole entry, looked up): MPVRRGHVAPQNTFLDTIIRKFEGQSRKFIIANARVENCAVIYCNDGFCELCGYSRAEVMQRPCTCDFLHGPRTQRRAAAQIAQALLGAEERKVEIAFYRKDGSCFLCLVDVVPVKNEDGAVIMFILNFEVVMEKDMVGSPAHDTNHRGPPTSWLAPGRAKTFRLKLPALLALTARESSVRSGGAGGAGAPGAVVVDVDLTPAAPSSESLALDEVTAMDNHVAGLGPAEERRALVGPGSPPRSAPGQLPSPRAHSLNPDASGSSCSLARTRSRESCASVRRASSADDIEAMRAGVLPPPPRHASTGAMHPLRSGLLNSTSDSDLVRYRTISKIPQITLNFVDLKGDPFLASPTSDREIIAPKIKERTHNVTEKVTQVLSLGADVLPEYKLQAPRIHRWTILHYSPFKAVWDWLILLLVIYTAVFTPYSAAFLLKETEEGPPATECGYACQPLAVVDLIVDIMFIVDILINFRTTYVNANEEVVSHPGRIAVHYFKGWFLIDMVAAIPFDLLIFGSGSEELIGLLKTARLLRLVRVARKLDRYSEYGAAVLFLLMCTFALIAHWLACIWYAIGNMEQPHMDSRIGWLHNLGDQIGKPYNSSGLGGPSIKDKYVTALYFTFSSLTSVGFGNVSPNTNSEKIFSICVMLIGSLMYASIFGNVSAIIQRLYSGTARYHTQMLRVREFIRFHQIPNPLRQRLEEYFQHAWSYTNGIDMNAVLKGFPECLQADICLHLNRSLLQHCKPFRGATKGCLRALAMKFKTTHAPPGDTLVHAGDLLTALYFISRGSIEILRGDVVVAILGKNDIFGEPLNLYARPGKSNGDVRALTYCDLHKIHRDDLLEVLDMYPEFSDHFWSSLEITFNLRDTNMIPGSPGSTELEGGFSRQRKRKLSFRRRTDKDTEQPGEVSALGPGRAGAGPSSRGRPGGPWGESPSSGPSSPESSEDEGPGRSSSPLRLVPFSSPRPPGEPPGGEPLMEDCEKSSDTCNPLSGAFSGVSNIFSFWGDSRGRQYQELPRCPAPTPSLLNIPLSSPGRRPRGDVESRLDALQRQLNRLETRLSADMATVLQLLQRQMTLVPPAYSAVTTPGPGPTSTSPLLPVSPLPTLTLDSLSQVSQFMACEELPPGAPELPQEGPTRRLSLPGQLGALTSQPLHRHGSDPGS
In the case of `COc1ccc(SCC(=O)c2cc(C)c(OC(=S)N(C)C)c(C)c2)cc1`, the “hERG current change (%, negative = inhibition) at 1uM” value stood at 13.1%.

`CC1CC(C)(C)NC(=S)N1CCCC(=O)Nc1ccc(Cl)cc1` (stereo not shown): the “hERG current change (%, negative = inhibition) at 1uM” value is 0.795%.

Take `O=c1cc(CSc2nnc(-c3ccccc3)o2)c2ccccc2[nH]1`: the “hERG current change (%, negative = inhibition) at 1uM” value was 10.7%.

As to `CCOc1cc(N2CCOCC2)c(OCC)cc1NS(=O)(=O)c1ccc(Cl)s1`, the “hERG current change (%, negative = inhibition) at 1uM” value came out at 10.5%.

Consider `O=C1C2CC=CCC2C(=O)N1c1ncn[nH]1` (stereo not shown), for which the “hERG current change (%, negative = inhibition) at 1uM” value is given as 15.1%.

For `C/C(=N/NC(=O)c1ccccn1)c1ccc(O)cc1`, the “hERG current change (%, negative = inhibition) at 1uM” value worked out at 5.45%.

Turning to `COC(=O)c1c(C(=O)OC)c(-c2cccc(F)c2)n2c1CS(=O)(=O)C2`, the “hERG current change (%, negative = inhibition) at 1uM” value is recorded as -1.71%.

Consider `CCC(=NCc1ccco1)c1c(O)n(-c2ccccc2C)c(=O)[nH]c1=O`, for which the “hERG current change (%, negative = inhibition) at 1uM” value is on record as 17.2%.

As for `CCN(CC)CCNC(=O)c1cn(CCOC)c(=O)c2c1c1ccccc1n2C`, the “hERG current change (%, negative = inhibition) at 1uM” value is given as 7.86%.

`O=C(COc1ccc2ccccc2c1Br)N1CCCCC1`: the “hERG current change (%, negative = inhibition) at 1uM” value is 8.38%.

As for `O=C(C1CCC1)N1CCC(O)(c2cccc(F)c2)CC1`, the “hERG current change (%, negative = inhibition) at 1uM” value is given as 1.27%.

`C=CCNC(=O)c1c(Br)cnn1-c1ccc(C)cc1`: the “hERG current change (%, negative = inhibition) at 1uM” value was 15.5%.

As for `CC(C)(C)C1=C(C#N)C(c2ccc3c(c2)OCO3)C(C#N)=C(N)O1` (stereo not shown), the “hERG current change (%, negative = inhibition) at 1uM” value was 3.47%.

As to `CCC1CCCCN1CCCNC(=O)Cn1ncn2nc(-c3ccc(OC)cc3)cc2c1=O` (stereo not shown), the “hERG current change (%, negative = inhibition) at 1uM” value is on record as -14.9%.

For the compound `CCCCC(=O)c1ccc(O)cc1O`, the “hERG current change (%, negative = inhibition) at 1uM” value was found to be 4.84%.

`Cc1nn2c(-n3ccnc3C)c3c(nc2c1-c1ccccc1)CCC3`: the “hERG current change (%, negative = inhibition) at 1uM” value was 2.09%.

On to `O=C(O)CSCC(=O)Nc1ccc(C2CCCCC2)cc1`, for which the “hERG current change (%, negative = inhibition) at 1uM” value is given as -1.73%.

As to `COc1ccccc1CCNC(=O)C(=O)NCC1OCCN1S(=O)(=O)c1ccc(Cl)cc1` (stereo not shown), the “hERG current change (%, negative = inhibition) at 1uM” value came to 11.2%.

`CCN(c1ccc2c(c1)OCO2)S(=O)(=O)c1cc(Br)cc2c1N(C(=O)C1CC1)CC2`: the “hERG current change (%, negative = inhibition) at 1uM” value came out at 8.82%.

As to `Cc1nc2cc(NC(=O)c3ccc(Br)s3)ccc2s1`, the “hERG current change (%, negative = inhibition) at 1uM” value is 13.9%.

As to `O=C(Nc1ccc(N2CCN(C(=O)c3ccco3)CC2)cc1)c1cccc(F)c1`, the “hERG current change (%, negative = inhibition) at 1uM” value was -3.64%.

For the compound `CCOC(=O)c1ccc(S(=O)(=O)N2CCC(C(=O)O)CC2)cc1`, the “hERG current change (%, negative = inhibition) at 1uM” value amounted to 18.5%.

As for `CC1CCN(C(=O)c2cc(-c3ccc(Cl)c(Cl)c3)on2)CC1`, the “hERG current change (%, negative = inhibition) at 1uM” value is 7.09%.

As for `CS(=O)(=O)N1CCc2cc(C(=O)Nc3ccc(Cl)cc3)ccc21`, the “hERG current change (%, negative = inhibition) at 1uM” value stood at 1.76%.

For `c1nc2sc3c(c2c2nnnn12)CCCC3`, the “hERG current change (%, negative = inhibition) at 1uM” value is on record as 13.4%.

Turning to `Cc1ccc(C(O)(C(=O)NNS(=O)(=O)c2ccc(C)cc2)c2ccc(C)cc2)cc1`, the “hERG current change (%, negative = inhibition) at 1uM” value worked out at 13.4%.

As for `CC1CCN(Cc2c(C#N)c3ccccc3n2C)CC1`, the “hERG current change (%, negative = inhibition) at 1uM” value turned out to be 20%.

Turning to `COc1cc(O)c(C(CC(=O)N2CCCCC2)c2cc(OC)c(OC)c(OC)c2)c(OC)c1` (stereo not shown), the “hERG current change (%, negative = inhibition) at 1uM” value was determined as 14.3%.

On to `COc1cc(/C=C2/SC(=S)N(c3c(C)n(C)n(-c4ccccc4)c3=O)C2=O)ccc1O`, for which the “hERG current change (%, negative = inhibition) at 1uM” value was 17.2%.

As to `COc1ccc(NC(=O)CSc2nnc(NC(=O)c3ccco3)s2)cc1OC`, the “hERG current change (%, negative = inhibition) at 1uM” value was found to be 8.59%.

For `Cc1nn(C)c(C(=O)NCc2ccc(Cl)cc2)c1Cl`, the “hERG current change (%, negative = inhibition) at 1uM” value was found to be 9.39%.

For `Cc1cc(C(=O)Nc2ccccc2)oc(=O)c1`, the “hERG current change (%, negative = inhibition) at 1uM” value is 12.7%.

On to `CCC(=O)NC(=S)Nc1cccc(Cl)c1N1CCCCC1`, for which the “hERG current change (%, negative = inhibition) at 1uM” value is on record as -8.33%.

Consider `CC(C1CC1)N(Cc1ccccc1)C(=S)Nc1cccc(C(F)(F)F)c1` (stereo not shown), for which the “hERG current change (%, negative = inhibition) at 1uM” value is 6.07%.

As for `CCOc1ccc(N2C(=O)CC(N(Cc3ccco3)C(=O)CCC(=O)O)C2=O)cc1` (stereo not shown), the “hERG current change (%, negative = inhibition) at 1uM” value is recorded as 13.2%.

`Clc1ccc(OC2CCN(Cc3nc(CC4CC4)no3)CC2)cc1`: the “hERG current change (%, negative = inhibition) at 1uM” value was -0.691%.

`COC(=O)c1ccc(Oc2nc(Nc3ccc(F)cc3)nc(N3CCCC3)n2)cc1`: the “hERG current change (%, negative = inhibition) at 1uM” value is reported as 14.9%.

Turning to `O=C1CC(C(=O)NCCc2ccccc2)SC(=Nc2ccccc2)N1` (stereo not shown), the “hERG current change (%, negative = inhibition) at 1uM” value stood at 12.1%.

`O=C(CCC(=O)c1cccs1)NCc1cccnc1`: the “hERG current change (%, negative = inhibition) at 1uM” value was 14.7%.

For `CCC(=O)c1ccc(OCC(=O)OCC(=O)Nc2sccc2C(N)=O)cc1`, the “hERG current change (%, negative = inhibition) at 1uM” value came out at 6.84%.

As to `Cc1ccc(-c2noc(-c3c(C)noc3C)n2)cc1`, the “hERG current change (%, negative = inhibition) at 1uM” value was determined as 13.1%.

`Cc1cc(NC(=O)CSc2nc(=O)cc(N)n2-c2ccc(C)c(C)c2)no1`: the “hERG current change (%, negative = inhibition) at 1uM” value is 10.9%.

For the compound `CCCCNS(=O)(=O)c1ccc(NC(=O)Cc2ccccc2[N+](=O)[O-])cc1`, the “hERG current change (%, negative = inhibition) at 1uM” value stood at 7.87%.

Regarding `CCOCCCn1c(C)nc2c(c1=O)c1nc3ccccc3nc1n2-c1ccc(C)cc1`, the “hERG current change (%, negative = inhibition) at 1uM” value is -0.542%.

As for `CCCCNC(=S)N1CCN(C)CC1.O=C(O)C(=O)O`, the “hERG current change (%, negative = inhibition) at 1uM” value was determined as 15.3%.

Turning to `CCC(C)NC(=O)c1ccc(CSCc2ccc(Cl)cc2)o1` (stereo not shown), the “hERG current change (%, negative = inhibition) at 1uM” value turned out to be 2.14%.

Consider `CCOc1ccc(NC(=O)COc2ccc(C(=O)NC3CCCc4ccccc43)cc2OC)cc1` (stereo not shown), for which the “hERG current change (%, negative = inhibition) at 1uM” value was determined as 6.36%.

Turning to `COc1cc(NC(=O)Cc2ccc(Cl)cc2)ccc1NC(=O)c1ccco1`, the “hERG current change (%, negative = inhibition) at 1uM” value is on record as 4.88%.

Turning to `O=C(CCCC(=O)N(CC(=O)NC1CCCC1)Cc1ccc(F)cc1)Nc1ccccn1`, the “hERG current change (%, negative = inhibition) at 1uM” value is recorded as -3.34%.

Regarding `COc1cc(C2SCC(=O)N2Cc2ccccc2)cc(OC)c1OC` (stereo not shown), the “hERG current change (%, negative = inhibition) at 1uM” value is listed as 12.6%.

In the case of `N#C/C(=C\c1ccc(OCC(N)=O)cc1)c1ccccc1`, the “hERG current change (%, negative = inhibition) at 1uM” value is listed as 8.8%.

Consider `CC(=NC1CC1)C1=C(O)c2ccccc2C1=O`, for which the “hERG current change (%, negative = inhibition) at 1uM” value is recorded as 23.9%.

On to `Cc1cc(Cl)c2oc(C(=O)N3CCN(c4ccncc4)CC3)c(C)c2c1`, for which the “hERG current change (%, negative = inhibition) at 1uM” value is reported as -83.6%.

As for `CCC(O)(C(=O)Nc1ccccc1C(F)(F)F)c1ccccc1OC` (stereo not shown), the “hERG current change (%, negative = inhibition) at 1uM” value was 10.8%.

As for `Cc1ccc(C(=O)NNC(=O)C(C)Oc2ccc3ccccc3c2)o1` (stereo not shown), the “hERG current change (%, negative = inhibition) at 1uM” value is reported as 16.4%.

With `O=C(CCCCn1c(=O)[nH]c2ccccc2c1=O)N1CCN(c2cccc(C(F)(F)F)c2)CC1`, the “hERG current change (%, negative = inhibition) at 1uM” value is 3.42%.

For `O=C(CSCc1nc2ccccc2[nH]1)Nc1ccc(Oc2ccccc2)cc1`, the “hERG current change (%, negative = inhibition) at 1uM” value is on record as 8.76%.

For the compound `NC(=O)[C@H]1CC2(CC(c3cccc(NC(=O)COc4ccc(Cl)cc4)c3)=NO2)CN1C(=O)C(c1ccccc1)c1ccccc1` (stereo partly shown), the “hERG current change (%, negative = inhibition) at 1uM” value was found to be 13.7%.
